Source: a collection of fitness landscapes (doi:10.1016/j.celrep.2020.107928)
The full ranking holds about 81,000 sequences; the median of “one-hybrid fitness for binding parS DNA” is about -0.17, and the highest 2% start at about 0.51. The list shows a part of the results.

B1: Caulobacter ParB omega fusion; a variant is named by its letters at X, in order, B8GW30 (parent)
chain: MESVVVGEPGMSEGRRGLGRGLSALLGEVDAAPAQAPGEQLGGSREAPIEILQRNPDQPRRTFREEDLEDLSNSIREKGVLQPILVRPSPDTAGEYQIVAGERAWRAAQRAGLKTVPIMVRELDDLAVLEIGIIENVQRADLNVLEEALSYKVLMEKFERTQENIAQTIGKSXSHVANXMRLLXLPDEVQSYLVSGELTAXHARAIAAAADPVALAKQIIEGGLSVRETEALARKAPNLSAGKSKGGRPPRVKDTDTQALESDLSSVLGLDVSIDHRGSTGTLTITYATLEQLDDLCNRLTRGI

Variants of: B1
Assay: one-hybrid fitness for binding parS DNA (scaled: cognate 1, non-cognate 0); higher = stronger binding
Settings: with parS DNA site
Outline: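 Pre- and post-selection plasmids were Illumina-sequenced, three replicate libraries were pooled, and any variant with under 10 reads was removed. The libraries were Caulobacter ParB with four specificity codons randomised, selected in E. coli USO through a HIS3 reporter whose site is 19 bp from the promoter. Cells grew 48 hours at 37°C on M9 without histidine, with 0.1 mM IPTG and 5 mM 3-AT. Fitness is the log change in variant-to-wild-type read ratio, rescaled against cognate and non-cognate.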

one-hybrid fitness for binding parS DNA, 0.304:
INMN

one-hybrid fitness for binding parS DNA, 0.467:
RCMY

one-hybrid fitness for binding parS DNA, 0.233:
RTFW

one-hybrid fitness for binding parS DNA, 0.438:
RVCN

one-hybrid fitness for binding parS DNA, 0.637:
RVPC

one-hybrid fitness for binding parS DNA, 0.427:
RNIT

one-hybrid fitness for binding parS DNA, 0.267:
EKNM

one-hybrid fitness for binding parS DNA, ≤ 0.2:
FMTC
KGTW
AYIS
ANHC
CYTD
WMQT
LPMS
PERG
KYKF
SGMD
TNRG
THLR
CLGE
EGLC
SKIG
ALVE
TLTN
ELQE
YIRH
VFPR
EMFR
YTLC
ARSK
ELAG
YAGW
FKRG
QHKF
DLQS
ADYV
TITS
ICGR
KTNS
VQYV
HPSM
YAVG
LNRC
QVLT
TPPE
MIRT
QSVP
FQFL
ISTG
PTRF
NHYI
RHEH
VAHW
MPPE
SQRS
HYPT
VYTQ
LMDT
THQF
ANID
LSCR
RVHD
ACLS
SARA
KFKT
LCDD
IRNK
AIKD
YECV
RAAD
LWSF
APHI
FGPC
EVTI
FEEG
AFGC
SSVV
SLYF
LLSP
YDRR
FAGG
TIPY
THYI
PCYC
KWLA
MSGG
SAFS
HIRV
GMCS
NNWS
TTFP
GCHI
VMTL
NRTF
TDPV
GIKA
KAQC
PGPV
PPDI
EQTA
NSSM
ALQC
HTYR
HQVC
ITTC
PTYC
DPRY
IQGC
SALP
TPPR
GTSH
APVM
PLQQ
DVPF
DTAF
MQHG
HDNA
YFTR
VMKR
GLSW
NVNA
RNIL
HMML
LVPF
QRRT
WSEI
WHLT
NAGY
SRQQ
RIHI
HEKF
QAHK
MWAR
SRNK
MMKN
PSPI
YIHY
LYQE
RRHV
QFPM
LGVM
PCIS
VEQR
PPMN
EKDF
TCWR
SPRA
NCMS
PTVR
KAYG
VNNF
LVWH

one-hybrid fitness for binding parS DNA, 0.212:
RIAD
